# According to the supplement of paper PMC3334620:
# Over roughly 33,000 sequences, “E-score (-0.5 to 0.5)” has its median near -0.016; the highest 2% begin near 0.32. Some of the results follow.
# Target: T1, Stp1 (UniProt B3LFK1)
# T1 sequence: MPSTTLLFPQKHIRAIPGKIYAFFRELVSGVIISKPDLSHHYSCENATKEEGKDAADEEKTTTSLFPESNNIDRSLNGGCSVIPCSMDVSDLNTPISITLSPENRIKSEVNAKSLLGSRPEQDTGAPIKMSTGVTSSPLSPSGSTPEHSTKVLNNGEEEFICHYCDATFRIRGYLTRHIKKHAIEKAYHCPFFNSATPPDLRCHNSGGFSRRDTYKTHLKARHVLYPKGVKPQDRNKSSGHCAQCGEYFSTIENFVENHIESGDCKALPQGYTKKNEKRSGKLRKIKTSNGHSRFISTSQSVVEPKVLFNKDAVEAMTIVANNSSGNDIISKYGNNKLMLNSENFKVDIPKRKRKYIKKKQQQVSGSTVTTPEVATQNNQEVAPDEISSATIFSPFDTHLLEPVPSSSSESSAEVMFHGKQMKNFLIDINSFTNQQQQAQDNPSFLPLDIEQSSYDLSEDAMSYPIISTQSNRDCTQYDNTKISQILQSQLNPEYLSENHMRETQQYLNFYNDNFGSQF
# Experiment: PBM E-score (8-mer binding enrichment) (E-score (-0.5 to 0.5)); higher = stronger / more preferred TF binding; most listed sequences are background and not binding sites
# Details: protein concentration: 200 nM; construct: GST-full length
# In short: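 GST-tagged yeast TFs (full-length or DNA-binding domain) were made by PURExpress in vitro transcription/translation and applied at about 100-200 nM to universal all-10-mer Agilent arrays. The arrays were made double-stranded by primer extension, on fresh or once-stripped slides. Bound protein was detected with fluorescent anti-GST, and scans were normalised with masliner. Each ungapped eight-base word, pooled with its reverse complement, received an E-score (modified Wilcoxon-Mann-Whitney statistic) from the Universal PBM Analysis Suite.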
row,Sequence,PBM E-score
1,AGCTCCGG,-0.216
2,CACTCCTC,-0.186
3,ATACACCG,-0.116
4,ATATTATA,0.0917
5,ACGGAAGA,0.253
6,CTAGACCA,-0.128
7,CTGGTCAA,-0.0901
8,ATTTAGAA,0.192
9,CCGTACCG,0.253
10,CGGCCTGA,-0.145
11,AAGCGGCC,0.282
12,AAGTATAG,-0.0425
13,CAATGCGG,0.196
14,CCTAGTTC,-0.0366
15,CGAGCGCG,0.0983
16,ACTCAGGG,-0.24
17,AGTACAAC,0.0701
18,CACTAGGG,-0.07
19,GGACACAC,-0.0116
20,GTTCTAGA,0.0744
21,AGCTTTTG,0.0144
22,TCGTCGAA,-0.0605
23,CTGCTCCA,-0.0628
24,ATGTCATA,0.0494
25,CACACCAA,0.149

row,Sequence,PBM E-score
1,GCCACCAA,0.0233
2,ATTGCGAG,0.0325
3,AATCGACA,0.145
4,ACTCGTCG,-0.164
5,TATTTTCA,0.292
6,AGCTACCT,-0.211
7,TCTGGGAA,0.0506
8,AATTACGA,0.119
9,CCTTGACG,-0.2
10,GGTCTCCA,-0.135
11,GAGTCTTA,-0.174
12,AGATGCCA,0.0879
13,CCTTCCAG,-0.129
14,GGCCCGCA,-0.118
15,AATGAAGA,0.207
16,CACAAGGG,-0.132
17,AGGTGGCC,-0.294
18,ATAAGTAG,-0.0454
19,AGTGGGAC,-0.267
20,ACACAGGT,-0.268
21,CTTATCTA,0.193
22,ATGCGAAA,0.143
23,CCATGACC,-0.201
24,AGAGCGTG,0.0393
25,AGCCGCGC,0.424

row,Sequence,PBM E-score
1,TGCTTAAA,0.0459
2,GCCCTTCA,0.153
3,CATGTATC,-0.031
4,AGGTCGGA,-0.181
5,GACGTCCC,-0.341
6,AGAACATG,0.0109
7,CGGTATCA,0.0203
8,CCAACGGG,0.0431
9,ACGGGCCG,0.084
10,AGGATGTG,-0.136
11,TCCAGTCA,-0.14
12,GATTTAGC,-0.0872
13,CGGCTGCC,0.241
14,AGCGTAAT,-0.0167
15,ATTTACTC,0.161
16,TAAACCAA,0.0677
17,AACCAAAT,0.135
18,CTGCGTTA,-0.102
19,GATTGCCA,0.00762
20,GGAGACCC,-0.345
21,GCATGACA,0.0909
22,ATAGACAT,-0.172
23,CTTCGGCC,-0.145
24,ATTAGACG,0.158
25,ATTGAATA,0.242

row,Sequence,PBM E-score
1,CGAACGGC,0.467
2,GGCTGTGA,0.0981
3,GAGCAACC,-0.0821
4,AGTCTTCA,-0.113
5,AGTAGGGG,-0.197
6,AACGAGGC,0.3
7,AAAGTTGT,0.162
8,ATTATGAG,0.0796
9,ATCCACAG,-0.00511
10,CAAAAGAG,-0.0462
11,AATCGGCA,0.268
12,AAAAGTTA,0.0307
13,GCGTACGC,-0.0472
14,ACTTTCGA,-0.0877
15,GGCAGTGA,0.0454
16,CACCGGCC,-0.121
17,GGGCAGAC,-0.08
18,CTCACTGA,-0.0281
19,ATATTTGG,-0.0297
20,CTCCGGAA,-0.228
21,ACTATCCG,0.115
22,GACTACGC,-0.174
23,AATTCAAC,0.164
24,CGATGGAC,-0.178
25,ATAACAAG,0.16

row,Sequence,PBM E-score
1,AAAGGTAA,-0.0968
2,CCAGCCCG,-0.321
3,TCTTTCCA,-0.122
4,CCTACAGG,-0.264
5,CCCTTAGC,-0.176
6,CGTTAAAC,0.187
7,CACTAAAA,0.123
8,ATGGAACA,-0.144
9,AGGGAAAC,-0.162
10,TATGATCA,0.0853
11,GATCCGAA,-0.0145
12,AGAGGTAA,-0.0671
13,GATGTAAA,0.0807
14,TCGTAACA,0.0553
15,AATCCCGT,0.181
16,GGCCGCAC,0.289
17,ATTACGGA,0.0935
18,GGAAAAGA,0.124
19,AGGATCTA,-0.119
20,GCGGTAAC,0.245
21,AAGATCGG,-0.09
22,AAAACGTG,0.00312
23,ACTCAGGA,-0.0219
24,GCCGCGCA,0.476
25,AGAATGGG,-0.147

row,Sequence,PBM E-score
1,CCTATGGC,0.0235
2,AAACGGTC,0.0651
3,AACGAAGA,0.0103
4,GGCCGAAA,0.0894
5,CTCCTTGC,-0.251
6,AAAACTGC,0.0654
7,CTACAGCC,-0.0221
8,CTAGGAAC,-0.0557
9,ACAGGGCC,0.0285
10,CGTGGACA,0.0565
11,AACCGTTG,-0.0846
12,CGCATGCG,0.104
13,ACGGTCGA,-0.0498
14,ATCTTTTA,0.132
15,GCACGGGC,0.19
16,AAAGCCGT,0.386
17,CTGAATGA,0.0815
18,AGTGCCCG,0.0388
19,CTGCGCTC,-0.214
20,GCAAGTGC,-0.00995
21,ATAGAAGG,-0.021
22,AGCCCCTG,-0.353
23,AACCCTAA,-0.0589
24,GACGTCAA,0.0184
25,ACGCGTCT,-0.112

row,Sequence,PBM E-score
1,AACGGCGC,0.477
2,GTCTTTTA,-0.0416
3,CGTCCGAA,0.142
4,CACGGCAG,0.428
5,CGTCAGAC,-0.0993
6,AGATTTTC,0.0728
7,ATGATGTG,-0.0485
8,ATAGGTCC,0.0708
9,AACGTAAA,0.1
10,GCTTTTAC,0.0167
11,GTGAACGA,-0.0319
12,GACCTAGC,-0.193
13,GCGGTTAA,-0.0125
14,CTCGTGAA,-0.0319
15,CCATCGGA,-0.275
16,CACGAGAA,-0.0867
17,GCATAACA,0.00106
18,CGATCGAG,0.0366
19,ATTGATGC,0.221
20,ACGGTTTA,-0.202
21,ACTTATCT,-0.039
22,AGAGGCCG,-0.0748
